Assay results taken from paper PMC3897701.
No constants are given. Whether binding was seen depends on the method and setting. Some entries that bind do so weakly or less than the wild type. For some assays here: Sequences can lack the tags named with a protein. Values belong to the substance of their own block, whether it stands above or below them.

Chains of the proteins cited; added tags and fusions are not shown. Lines headed by an entry give the natural chain unless they say otherwise; changes in a name come on top. Residues count along the entry.
UniProt Q07011: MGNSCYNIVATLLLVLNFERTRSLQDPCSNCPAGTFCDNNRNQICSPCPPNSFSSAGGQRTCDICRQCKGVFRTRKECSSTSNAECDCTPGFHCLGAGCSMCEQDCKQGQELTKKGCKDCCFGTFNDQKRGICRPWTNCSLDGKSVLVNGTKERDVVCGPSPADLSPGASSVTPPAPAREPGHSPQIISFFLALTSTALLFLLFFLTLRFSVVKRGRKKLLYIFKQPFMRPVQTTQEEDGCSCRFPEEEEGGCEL
UniProt P41273, residues 50-254: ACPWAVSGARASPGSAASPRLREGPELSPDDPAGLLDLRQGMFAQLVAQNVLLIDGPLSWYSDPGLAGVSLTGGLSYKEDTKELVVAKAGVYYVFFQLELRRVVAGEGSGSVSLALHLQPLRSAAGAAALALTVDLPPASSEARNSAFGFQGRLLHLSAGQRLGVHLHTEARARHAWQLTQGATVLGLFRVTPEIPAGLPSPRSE
UniProt P41274, residues 104-309: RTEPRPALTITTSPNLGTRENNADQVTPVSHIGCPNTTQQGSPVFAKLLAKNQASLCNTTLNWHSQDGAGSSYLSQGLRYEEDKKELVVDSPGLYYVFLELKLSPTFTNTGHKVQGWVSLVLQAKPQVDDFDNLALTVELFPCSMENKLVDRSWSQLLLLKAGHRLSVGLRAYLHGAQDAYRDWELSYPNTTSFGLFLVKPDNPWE

How the values were obtained:
[1] = molecular target: T1, mouse CD137 extracellular domain with hFc tail (mE-hFc) (mouse) (UniProt P20334); test: far-Western, overlay or dot blot; mE and hE run on 10% SDS-PAGE without 2-ME, blotted, probed with hCD137L-mFc and HRP-goat-anti-mouse IgG (ECL); both purified
T1 sequence: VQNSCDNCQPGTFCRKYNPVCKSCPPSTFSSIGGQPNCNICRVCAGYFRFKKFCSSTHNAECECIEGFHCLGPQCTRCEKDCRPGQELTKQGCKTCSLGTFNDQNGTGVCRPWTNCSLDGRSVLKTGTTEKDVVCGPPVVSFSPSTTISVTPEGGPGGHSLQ

[2] = molecular target: hE (full-length human CD137 extracellular domain, human IgG-Fc fusion protein) (human) (UniProt Q07011); test: as above
[3] = molecular target: hCD137L-mFc (human CD137L extracellular domain and mouse IgG-Fc fusion protein) (human) (UniProt P41273); test: ELISA; purified hCD137L-mFc coated at 1 µg/ml; expression supernatants of human or mouse CD137-hFc fragments added; goat anti-human IgG-HRP; positive if P/N>2.1; only the target purified
[4] = molecular target: hCD137L-mFc (human CD137L extracellular domain and mouse IgG-Fc fusion protein) (human) (UniProt P41273); test: ELISA; purified hCD137L-mFc coated at 1 µg/ml; purified hE3 added at 0.2 to 10 µg/ml; goat anti-human IgG-HRP; both purified
[5] = molecular target: hCD137L-hFc (human CD137L extracellular domain with human IgG-Fc fusion protein) (human) (UniProt P41273); test: ELISA; purified hCD137L-hFc coated at 1 µg/ml; expression supernatants of hE300, hE3003, hE3004 (mFc) added; goat anti-mouse IgG-HRP; only the target purified
[6] = molecular target: hCD137L-mFc (human CD137L extracellular domain and mouse IgG-Fc fusion protein) (human) (UniProt P41273); test: ELISA; blocking: purified hCD137-hFc (1.0 µg/ml) preincubated overnight at 4°C with anti-human CD137 mAbs or OKT3, added to coated purified hCD137L-mFc (1 µg/ml) for 2 h at 37°C; mouse anti-human Fc-HRP; both purified
[7] = molecular target: T1, mouse CD137 extracellular domain with hFc tail (mE-hFc) (mouse); test: condition: only proteins boiled and run on SDS-PAGE with 2-ME (reduced); 1 µg/ml mCD137L-mFc; far-Western, overlay or dot blot; purified proteins boiled 5 min in loading buffer with 2-ME, 10% SDS-PAGE, blotted on nitrocellulose, incubated with 1 µg/ml mCD137L-mFc, goat anti-mouse IgG (ECL); both purified
[8] = molecular target: T2, mE2 (mouse CD137 CRDI, human IgG-Fc fusion protein) (mouse) (UniProt P20334); test: as above
T2 sequence: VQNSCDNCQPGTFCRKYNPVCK

[9] = molecular target: T3, mE3 (mouse CD137 CRDI+II, human IgG-Fc fusion protein) (mouse) (UniProt P20334); test: as above
T3 sequence: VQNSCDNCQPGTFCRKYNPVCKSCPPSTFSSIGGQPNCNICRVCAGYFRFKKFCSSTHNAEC

[10] = molecular target: T4, mE4 (mouse CD137 CRDI+II+III, human IgG-Fc fusion protein) (mouse) (UniProt P20334); test: as above
T4 sequence: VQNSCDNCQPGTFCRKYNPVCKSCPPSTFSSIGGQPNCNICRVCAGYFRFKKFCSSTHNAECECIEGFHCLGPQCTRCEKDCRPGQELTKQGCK

[11] = molecular target: T1, mouse CD137 extracellular domain with hFc tail (mE-hFc) (mouse); test: far-Western, overlay or dot blot; mE-hFc and mE3-hFc in loading buffer without 2-ME and not boiled, 10% SDS-PAGE, blotted on nitrocellulose, incubated with 1 µg/ml mCD137L-mFc, goat anti-mouse IgG (ECL); both purified
[12] = molecular target: T3, mE3 (mouse CD137 CRDI+II, human IgG-Fc fusion protein) (mouse); test: as above
[13] = molecular target: T2, mE2 (mouse CD137 CRDI, human IgG-Fc fusion protein) (mouse); test: ELISA; mE100 and mE2 coated (also at 5 µg/ml), mCD137L added; OD 450 nm; both purified
[14] = molecular target: T5, mE100 (mouse CD137 CRDIII only, Fc fusion expressed with pCDM-L) (mouse) (UniProt P20334); test: as above
T5 sequence: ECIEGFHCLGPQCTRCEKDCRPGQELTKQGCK

binding [1]: binds
binding [2]: binds
Substance: hCD137L-mFc (human CD137L extracellular domain and mouse IgG-Fc fusion protein) (from UniProt P41273 50-254)

binding [3]: binds
Substance: hE4 (human CD137 CRDI+II+III, human IgG-Fc fusion protein) (from UniProt Q07011 24-118)

binding [7]: no binding
binding [8]: no binding
binding [9]: no binding
binding [10]: no binding
binding [11]: binds
binding [12]: binds
Substance: mCD137L-mFc (mouse CD137L extracellular domain with mouse IgG-Fc fusion protein) (from UniProt P41274 104-309)
binding [13]: no binding (tested: proteins also coated at 5 µg/ml)
binding [14]: no binding (tested: proteins also coated at 5 µg/ml)

More lines, now with the values behind:

Substance: hE2 (human CD137 CRDI, human IgG-Fc fusion protein) (from UniProt Q07011 24-46)
binding [3]: no binding

Substance: hE3 (human CD137 CRDI+II, hIgG1-Fc fusion protein) (from UniProt Q07011 24-86)
binding [4]: no binding (tested: 10 µg/ml)
binding [3]: no binding

Substance: hE3003 (human CD137 single CRDIII, mouse IgG-Fc fusion protein) (from UniProt Q07011 87-118)
binding [5]: no binding

Substance: hE (full-length human CD137 extracellular domain, human IgG-Fc fusion protein) (from UniProt Q07011 24-186)
binding [3]: binds
binding [6]: binds
